# Data published in PMC4336329 (PLoS ONE, 2015).
# Screen size: about 310,000 compounds; about 14,000 (4.5%) showed an effect of 50% or more. The effect is printed as a negative number. This is one part of the list.
# Target: human ether-à-go-go-related gene (hERG) potassium channel (human, UniProt Q12809)
# Assay: primary screen, population patch clamp on CHO cells stably expressing hERG
# 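Also: peak tail current of the secondary pulse compared with the same well before compound.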
# Sequence of human ether-à-go-go-related gene (hERG) potassium channel (Q12809 whole entry, looked up): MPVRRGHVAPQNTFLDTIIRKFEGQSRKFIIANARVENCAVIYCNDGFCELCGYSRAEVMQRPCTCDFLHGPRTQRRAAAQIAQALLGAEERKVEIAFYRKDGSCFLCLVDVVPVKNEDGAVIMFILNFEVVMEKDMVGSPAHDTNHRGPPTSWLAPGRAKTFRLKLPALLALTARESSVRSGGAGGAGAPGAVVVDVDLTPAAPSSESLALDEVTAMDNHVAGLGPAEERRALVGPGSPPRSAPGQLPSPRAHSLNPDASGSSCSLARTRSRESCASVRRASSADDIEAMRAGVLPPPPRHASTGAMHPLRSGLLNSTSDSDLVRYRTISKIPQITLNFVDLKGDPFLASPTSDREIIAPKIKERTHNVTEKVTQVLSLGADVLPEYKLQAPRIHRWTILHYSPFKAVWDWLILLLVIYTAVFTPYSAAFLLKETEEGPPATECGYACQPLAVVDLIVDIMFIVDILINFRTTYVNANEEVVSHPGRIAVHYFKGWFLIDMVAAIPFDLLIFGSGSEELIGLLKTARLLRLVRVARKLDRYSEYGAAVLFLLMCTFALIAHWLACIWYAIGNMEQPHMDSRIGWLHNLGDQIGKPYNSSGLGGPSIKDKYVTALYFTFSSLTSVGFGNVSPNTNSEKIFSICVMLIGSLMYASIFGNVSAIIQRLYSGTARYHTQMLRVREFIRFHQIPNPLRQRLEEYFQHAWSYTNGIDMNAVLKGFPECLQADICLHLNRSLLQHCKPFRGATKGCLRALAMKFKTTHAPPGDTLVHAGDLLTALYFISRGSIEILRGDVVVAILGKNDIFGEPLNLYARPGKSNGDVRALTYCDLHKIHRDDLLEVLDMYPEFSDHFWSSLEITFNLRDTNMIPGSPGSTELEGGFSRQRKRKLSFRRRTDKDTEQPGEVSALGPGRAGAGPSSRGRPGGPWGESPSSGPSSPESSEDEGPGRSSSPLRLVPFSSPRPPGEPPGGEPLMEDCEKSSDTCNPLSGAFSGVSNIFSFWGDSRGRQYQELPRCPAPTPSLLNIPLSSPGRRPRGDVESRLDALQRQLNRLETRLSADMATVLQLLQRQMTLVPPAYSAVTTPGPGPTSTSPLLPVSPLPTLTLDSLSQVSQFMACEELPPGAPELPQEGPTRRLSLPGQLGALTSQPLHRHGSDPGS
row,Compound,"hERG current change (%, negative = inhibition) at 10uM"
1,COc1cc(OC)c(NC(=O)CCNS(=O)(=O)c2ccc3c(c2)oc(=O)n3C)cc1Cl,13.9%
2,Cn1c(=O)n(Cc2ccccc2)c(=O)c2c1nc1n2CCN1Cc1ccco1,-36.7%
3,O=C(COC(=O)[C@@H]1CC(O)CN1S(=O)(=O)c1ccc(Cl)cc1)NC(=O)NCc1ccccc1 (some centres unmarked),-30.1%
4,COc1cccc(C2CC(c3ccc(Cl)cc3)Nc3nc(N)nn32)c1 (centres unmarked),-16.1%
5,Cc1[nH]c2ccccc2c1SCC(=O)N1CCOCC1,8.55%
6,COCCNC(=S)N1CCN(c2ccc(Cl)cc2)CC1,-12.9%
7,COc1ccc(NS(=O)(=O)c2cccc(-c3nnc(-c4ccccc4)o3)c2)cc1,-20.6%
8,Nc1ccc(S(=O)(=O)Nc2ncccn2)cc1,23.9%
9,CCc1nc2ccc(C(=O)NCCCN3CCN(c4ccccc4F)CC3)cc2nc1CC,-49.8%
10,Cc1cc(NC(=O)c2cc(CC(C)C)on2)n(-c2ccccc2)n1,9.57%
11,NCCCC[C@H]1CNC(=O)C(=O)N1CCc1cccc2ccccc12,3.03%
12,Br.COc1ccc(N=c2scc(-c3ccc(OC)cc3)n2CCO)cc1,2.85%
13,COC(=O)c1ccc(N2CCN(C(=O)C3CC3)CC2)c([N+](=O)[O-])c1,-7.61%
14,Cc1cccc(NC(=O)c2c([N+](=O)[O-])cnn2C)c1,16.9%
15,COC(=O)c1ccc(C2/C(=C(\O)c3cccc(OC)c3)C(=O)C(=O)N2CCCN(C)C)cc1 (centres unmarked),-0.614%
16,Cc1ccccc1N1CC(C(=O)Nc2ccc(S(=O)(=O)N3CCCC3)cc2)CC1=O (centres unmarked),3.59%
17,O=c1oc2ccccc2cc1-c1nc(-c2cccs2)cs1,7.87%
18,CN(C1CCCCC1)S(=O)(=O)c1ccc2c(c1)c(=O)c(C(=O)NCCCN1CCCC1)cn2C,-25.6%
19,Cc1ccccc1C(=O)Nc1cccc(C(=O)N/N=C/c2cc(Cl)cc([N+](=O)[O-])c2O)c1,7.34%
20,Cc1nnc(NC(=O)CCC(=O)NCc2ccco2)s1,13.5%
21,COc1ccc(-c2csc(NC(=S)NC(=O)c3ccc(S(=O)(=O)N(C)C)cc3)n2)cc1OC,6.31%
22,Ic1ccccc1CN[C@@H]1C2CCN(CC2)[C@@H]1C(c1ccccc1)c1ccccc1.O.O=C(O)C(=O)O,-69.7%
23,CN(C)S(=O)(=O)c1cccc(NC(=O)c2cccc(S(=O)(=O)N3CCc4ccccc43)c2)c1,-4.62%
24,CC(NC(=O)Nc1ccc(Cl)cc1)C(c1cccs1)N1CCOCC1 (centres unmarked),-8.08%
25,COc1ccc(N=Nc2cc(C)c(O)c(CN3CCCCC3)c2)cc1,1.85%
26,CC(C)(O)[C@@H]1Cc2c(ccc3ccc(=O)oc23)O1,6.69%
27,COc1ccc(C(c2nnnn2C2CCCC2)N2CCN(C(=O)c3ccco3)CC2)cc1OC.Cl (centres unmarked),-32.8%

row,Compound,"hERG current change (%, negative = inhibition) at 10uM"
1,CCC(=O)Nc1ncc2c(n1)CC(c1ccco1)CC2=O (centres unmarked),7.92%
2,CC(=O)Nc1ccc(OCC(=O)N(CC(C)C)C2CCS(=O)(=O)C2)cc1 (centres unmarked),10.5%
3,CC12CN3CC(C)(CN(C1)C3c1ccc(Br)cc1)C2=O (centres unmarked),0.611%
4,CCCCn1c(N)c(N(CCOC)C(=O)COc2ccc(C(C)=O)cc2)c(=O)[nH]c1=O,21%
5,Cc1ccc(N2C(=S)N=C(Nc3ccccc3C)C23CCOC(C)(C)C3)cc1 (centres unmarked),-2.58%
6,COc1ccccc1CNC(=O)COC(=O)c1cccc(-n2cnnn2)c1,-7.25%
7,COC(=O)c1ccc(/C=N/NC(=S)NCCN2CCOCC2)cc1,-0.156%
8,Fc1ccc(-c2nc3c(Cl)cc(C(F)(F)F)cn3c2Cl)cc1,6.91%
9,CCOC(=O)c1cc2c(ccn2C)n1Cc1cc(C)ccc1C,13.3%
10,CC1O[C@@H](OCC2O[C@@H](Oc3cc(O)c4c(c3)OC(c3ccc(O)cc3)CC4=O)[C@H](O)[C@@H](O)[C@@H]2O)[C@H](O)[C@H](O)[C@H]1O (some centres unmarked),1.53%
11,O=C1CC(c2ccccc2)CC(O)=C1C=NCCN1CCN(Cc2ccccc2)CC1 (centres unmarked),-63.1%
12,CCOC(=O)C1=C(C)OC(N)=C(C#N)C1c1cccc(C)c1 (centres unmarked),-3.78%
13,Cc1cc(OCc2cc(C(=O)N(C)CCc3cnn(C)c3)no2)cc(C)c1Cl,-38.9%
14,COc1ccc(OC)c(C2CC(=O)Nc3cc(OC)c(OC)c(OC)c32)c1 (centres unmarked),5.91%
15,COCCCn1c(=NC(C)=O)c(C#N)cc2c(=O)n3cccc(C)c3nc21,-49.7%
16,COc1cc2c(cc1OC)C(c1ccc(O)cc1)NCC2 (centres unmarked),19.6%
17,O=C(CCC(=O)N1CCCCCC1)Nc1ccc([N+](=O)[O-])cc1,-13.5%
18,COc1cc(OC)c2ccc(=O)oc2c1C(CC(=O)N1CCCC1)c1ccc2c(c1)OCO2 (centres unmarked),-9.26%
19,CN(c1ccccc1)S(=O)(=O)c1cccc(NC(=O)CSc2nncn2C)c1,-5.44%
20,Cc1nn(C)cc1/C=N/O,-2.18%
21,O=C(O)C(=O)O.c1ccc(COc2cccc(CN3CCc4ccccc4C3)c2)cc1,9.46%
22,Cc1cc(C(=O)NCc2cccnc2)cs1,-12.2%
23,CCOc1cc(CNCCCN2CCOCC2)cc(Br)c1OCc1ccccc1Cl.Cl,-64.9%
24,Cc1nc2c(-c3ccccc3)c(C)nn2c(C)c1CCC(=O)NCc1ccco1,-29.9%
25,CCCCN(CCCC)C(=O)CSc1nnc(-c2cc(OC)c(OC)c(OC)c2)o1,-58.5%
26,O=C(CN1CC(c2ccccc2)CC1=O)Nc1ccc2c(c1)OCO2 (centres unmarked),1.05%
